# Laboratory results: the supplement of paper PMC8728848
# The other results are listed elsewhere or left out.
# Legend:
# Assay in all cases: glycan array binding signal (z-score within array); higher = stronger binding
# Conditions in all cases: glycan notation: IUPAC condensed, linker removed
# Fuc(a1-2)Gal = target: Fuc(a1-2)Gal
# How it was run: (§1)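 Glycan array data came from 3228 arrays in the Consortium for Functional Glycomics database, and only arrays with an available protein sequence were kept. Glycan names were put into IUPAC-condensed notation, and columns mapping to the same glycan were averaged. The binding signal is a within-array Z-score, averaged across arrays of one protein sequence run at different concentrations or buffers and across linkers. A negative Z-score can be read as non-binding.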
# Fuc(a1-2)Gal(b1-3)GalNAc = target: Fuc(a1-2)Gal(b1-3)GalNAc
# How it was run: as §1
# [1] = target: Fuc(a1-2)Gal(b1-3)GalNAc(a1-3)[Fuc(a1-2)]Gal(b1-4)Glc
# How it was run: as §1
# [2] = target: Fuc(a1-2)Gal(b1-3)GalNAc(a1-3)[Fuc(a1-2)]Gal(b1-4)GlcNAc
# How it was run: as §1
# [3] = target: Fuc(a1-2)Gal(b1-3)GalNAc(b1-3)Gal
# How it was run: as §1
# [4] = target: Fuc(a1-2)Gal(b1-3)GalNAc(b1-3)Gal(a1-4)Gal(b1-4)Glc
# How it was run: as §1
# [5] = target: Fuc(a1-2)Gal(b1-3)GalNAc(b1-4)[Neu5Ac(a2-3)]Gal(b1-4)Glc
# How it was run: as §1
# Fuc(a1-2)Gal(b1-3)GlcNAc = target: Fuc(a1-2)Gal(b1-3)GlcNAc
# How it was run: as §1
# [6] = target: Fuc(a1-2)Gal(b1-3)GlcNAc(b1-2)Man(a1-3)[Fuc(a1-2)Gal(b1-3)GlcNAc(b1-2)Man(a1-6)]Man(b1-4)GlcNAc(b1-4)GlcNAc
# How it was run: as §1
# [7] = target: Fuc(a1-2)Gal(b1-3)GlcNAc(b1-2)Man(a1-3)[Fuc(a1-2)Gal(b1-3)GlcNAc(b1-2)Man(a1-6)]Man(b1-4)GlcNAc(b1-4)[Fuc(a1-6)]GlcNAc
# How it was run: as §1
# [8] = target: Fuc(a1-2)Gal(b1-3)GlcNAc(b1-3)Gal(b1-4)Glc
# How it was run: as §1
# [9] = target: Fuc(a1-2)Gal(b1-3)GlcNAc(b1-3)GalNAc
# How it was run: as §1
# [10] = target: Fuc(a1-2)Gal(b1-3)GlcNAc(b1-3)[Fuc(a1-2)Gal(b1-3)GlcNAc(b1-6)]GalNAc
# How it was run: as §1
# [11] = target: Fuc(a1-2)Gal(b1-3)GlcNAc(b1-3)[Gal(b1-4)GlcNAc(b1-6)]Gal(b1-4)Glc
# How it was run: as §1
# [12] = target: Fuc(a1-2)Gal(b1-3)GlcNAc(b1-3)[Neu5Ac(a2-6)Gal(b1-4)GlcNAc(b1-6)]Gal(b1-4)Glc
# How it was run: as §1
# [13] = target: Fuc(a1-2)Gal(b1-3)GlcNAc6S
# How it was run: as §1
# [14] = target: Fuc(a1-2)Gal(b1-3)[Fuc(a1-4)]GlcNAc
# How it was run: as §1
# [15] = target: Fuc(a1-2)Gal(b1-3)[Fuc(a1-4)]GlcNAc(b1-2)Man(a1-3)[Fuc(a1-2)Gal(b1-3)[Fuc(a1-4)]GlcNAc(b1-2)Man(a1-3)]Man(b1-4)GlcNAc(b1-4)GlcNAc
# How it was run: as §1
# [16] = target: Fuc(a1-2)Gal(b1-3)[Fuc(a1-4)]GlcNAc(b1-2)Man(a1-3)[Fuc(a1-2)Gal(b1-3)[Fuc(a1-4)]GlcNAc(b1-2)Man(a1-6)]Man(b1-4)GlcNAc(b1-4)[Fuc(a1-6)]GlcNAc(b1-4)[Fuc(a1-6)]GlcNAc
# How it was run: as §1
# [17] = target: Fuc(a1-2)Gal(b1-3)[Fuc(a1-4)]GlcNAc(b1-3)[Fuc(a1-3)[Gal(b1-4)]GlcNAc(b1-6)]Gal(b1-4)Glc
# How it was run: as §1
# [18] = target: Fuc(a1-2)Gal(b1-3)[Fuc(a1-4)]GlcNAc(b1-3)[Gal(b1-4)GlcNAc(b1-6)]Gal(b1-4)Glc
# How it was run: as §1
# Fuc(a1-2)Gal(b1-4)Glc = target: Fuc(a1-2)Gal(b1-4)Glc
# How it was run: as §1
# Fuc(a1-2)Gal(b1-4)Glc6S = target: Fuc(a1-2)Gal(b1-4)Glc6S
# How it was run: as §1
# Fuc(a1-2)Gal(b1-4)GlcNAc = target: Fuc(a1-2)Gal(b1-4)GlcNAc
# How it was run: as §1
# [19] = target: Fuc(a1-2)Gal(b1-4)GlcNAc(b1-2)Man
# How it was run: as §1
# [20] = target: Fuc(a1-2)Gal(b1-4)GlcNAc(b1-2)Man(a1-3)[Fuc(a1-2)Gal(b1-4)GlcNAc(b1-2)Man(a1-6)]Man(b1-4)GlcNAc(b1-4)GlcNAc
# How it was run: as §1
# [21] = target: Fuc(a1-2)Gal(b1-4)GlcNAc(b1-2)Man(a1-3)[Fuc(a1-2)Gal(b1-4)GlcNAc(b1-2)Man(a1-6)]Man(b1-4)GlcNAc(b1-4)[Fuc(a1-6)]GlcNAc
# How it was run: as §1
# [22] = target: Fuc(a1-2)Gal(b1-4)GlcNAc(b1-2)[Fuc(a1-2)Gal(b1-4)GlcNAc(b1-4)]Man(a1-3)[Fuc(a1-2)Gal(b1-4)GlcNAc(b1-2)Man(a1-6)]Man(b1-4)GlcNAc(b1-4)GlcNAc
# How it was run: as §1
# [23] = target: Fuc(a1-2)Gal(b1-4)GlcNAc(b1-3)Gal(b1-4)GlcNAc
# How it was run: as §1
# [24] = target: Fuc(a1-2)Gal(b1-4)GlcNAc(b1-3)Gal(b1-4)GlcNAc(b1-2)Man(a1-3)[Fuc(a1-2)Gal(b1-4)GlcNAc(b1-3)Gal(b1-4)GlcNAc(b1-2)Man(a1-6)]Man(b1-4)GlcNAc(b1-4)GlcNAc
# How it was run: as §1
binder,measurement,setting,value
Cohesin-hLangerin (Homo sapiens) (protein) LDDLDAVRIKVDTVNAKPGDTVRIPVRFSGIPSKGIANCDFVYSYDPNVLEIIEIEPGDIIVDPNPDKSFDTAVYPDRKIIVFLFAEDSGTGAYAITKDGVFATIVAKVKEGAPNGLSVIKFVEVGGFANNDLVEQKTQFFDGGANVGDTTEPATPTTPVTTPTTTDDLDAASYPRFMGTISDVKTNVQLLKGRVDNISTLDSEIKKNSDGMEAAGVQIQMVNESLGYVRSQFLKLKTSVEKANAQIQILTRSWEEVSTLNAQIPELKSDLEKASALNTKIRALQGSLENMSKLLKRQNDILQVVSQGWKYFKGNFYYFSLIPKTWYSAEQFCVSRNSHLTSVTSESEQEFLYKTAGGLIYWIGLTKAGMEGDWSWVDDTPFNKVQSARFWIPGEPNNAGNNEHCGNIKAPSLQAWNDAPCDKTFLFICKRPYVPSEPHHHHHH,glycan array binding signal (z-score),Fuc(a1-2)Gal,0.028
same,glycan array binding signal (z-score),Fuc(a1-2)Gal(b1-3)GalNAc,-0.421
same,glycan array binding signal (z-score),[1],-0.423
same,glycan array binding signal (z-score),[2],-0.405
same,glycan array binding signal (z-score),[3],0.364
same,glycan array binding signal (z-score),[4],-0.334
same,glycan array binding signal (z-score),[5],-0.321
same,glycan array binding signal (z-score),Fuc(a1-2)Gal(b1-3)GlcNAc,-0.364
same,glycan array binding signal (z-score),[6],1.65
same,glycan array binding signal (z-score),[7],2.42
same,glycan array binding signal (z-score),[8],-0.415
same,glycan array binding signal (z-score),[9],-0.243
same,glycan array binding signal (z-score),[10],-0.262
same,glycan array binding signal (z-score),[11],-0.423
same,glycan array binding signal (z-score),[12],-0.42
same,glycan array binding signal (z-score),[13],0.03
same,glycan array binding signal (z-score),[14],-0.409
same,glycan array binding signal (z-score),[15],0.307
same,glycan array binding signal (z-score),[16],0.805
same,glycan array binding signal (z-score),[17],-0.449
same,glycan array binding signal (z-score),[18],-0.422
same,glycan array binding signal (z-score),Fuc(a1-2)Gal(b1-4)Glc,-0.322
same,glycan array binding signal (z-score),Fuc(a1-2)Gal(b1-4)Glc6S,-0.348
same,glycan array binding signal (z-score),Fuc(a1-2)Gal(b1-4)GlcNAc,-0.189
same,glycan array binding signal (z-score),[19],-0.254
same,glycan array binding signal (z-score),[20],0.805
same,glycan array binding signal (z-score),[21],2.24
same,glycan array binding signal (z-score),[22],1.79
same,glycan array binding signal (z-score),[23],0.532
same,glycan array binding signal (z-score),[24],1.25
